B1: LINE1-mini (parent)
chain: GGCAGAGCUCAACACAGCGUGGCAAAGUGGCUGUGGCUAGACUGCC

The source gives no read counts; variants with many changes may rest on few reads.

The variants in this data set derive from B1. Briefly: self-cleavage, relative activity (ratio to wild type); higher = more cleavage; in vitro, sequencing; the parent is a self-cleaving ribozyme.
GGCAAAGCUCAAGACAGCGAGGCAAAGUGGCUGUGGCUAGACUUCC [G5A C13G U20A G44U]: the self-cleavage is 0.04.

For GGCAAAGCUUCACACAGCGUGUCAAAGUGGCUGUGGCUAGACUGCC [G5A C10U A11C G22U], the self-cleavage was found to be 0.04.

Take GGCAAAGCUCAAUACAGCGUGUCAAAGUGGCUGCGGCUAGACUGCC [G5A C13U G22U U34C]: the self-cleavage is 0.19.

On to GGCAAAGCUAAACAAAGCGUGGCAAAGUGGCUGUGGCUCGACUGCC [G5A C10A C15A A39C], for which the self-cleavage came to 0.04.

On to GGCAAAGCUAAACUCAGCGUGGCAAAGUGGCUGUGGCUAGACUGCC [G5A C10A A14U], for which the self-cleavage was found to be 0.04.

GGCAAAGCUAAACACAGGGUGGCAAAGUGGCUGUGGCACGACUGCC [G5A C10A C18G U38A A39C]: the self-cleavage amounted to 0.03.

Turning to GGCAAAGCUUAACACAGUGUGGCAUAGUGGCUUUGGCUAGACUGCC [G5A C10U C18U A25U G33U], the self-cleavage was determined as 0.08.

Regarding GGCAAAGCUCAAUACAGCGUGGCAAAGUUGCUGUGGCUAGACUGCC [G5A C13U G29U], the self-cleavage came to 0.13.

GGCAAAGCUAAACACAGCGUGGCAAAGUGGCUGUGGCUAGGCUGCC [G5A C10A A41G]: the self-cleavage was determined as 0.02.

As for GGCAAAGCUCAAGACAGCGUGGCAAAGCGGCUCUGGCUAGACUGCC [G5A C13G U28C G33C], the self-cleavage came to 0.03.

As for GGCAAAGCUAAACACAGCGUGGCAACGUGGCUGUGGCUGGACUGUC [G5A C10A A26C A39G C45U], the self-cleavage was determined as 0.01.

Turning to GGCAAAGCUAAACACAGCGUGGCAGCGUGGCUGUGGGUAGACUGCC [G5A C10A A25G A26C C37G], the self-cleavage was 0.01.

As to GGCAAAGCUCAAGACAUCGUGGCAAAGUGGCUGUGGCUAGACUGCC [G5A C13G G17U], the self-cleavage is 0.19.

Consider GGCAAAGCUCAAAACAGCGUGGCAAAGUUGCUGUGGCUAGACUGCC [G5A C13A G29U], for which the self-cleavage was 0.15.

For GGCAAAGCUCAAAACAGCGUGGCAAAGUGAGUGUGGCUAGACUGCA [G5A C13A G30A C31G C46A], the self-cleavage was 0.03.

As to GGCAAAGCUCAAUACAGUGUGGCAAAGUGGAUGUGGCCAGACUGCC [G5A C13U C18U C31A U38C], the self-cleavage turned out to be 0.01.

Regarding GGCAAAGCUUAACACAGAGUGGCAAAGUGGCGGUGGUUAGACUGCC [G5A C10U C18A U32G C37U], the self-cleavage was determined as 0.02.

For GGCAAAGCUGAACACAGCCUUGCAAAAUGGCAGUGGCUAGACUGCC [G5A C10G G19C G21U G27A U32A], the self-cleavage amounted to 0.02.

For the variant GGCAAAGCUGAACACAGCGUGGCAAAGUGGCCGUGUAUAGACUGCC [G5A C10G U32C G36U C37A], the self-cleavage stood at 0.

For GGCAAAGCUCAAAACAGCGUGGCAAAGUGGUUGUGGCUAGACUGCC [G5A C13A C31U], the self-cleavage was 0.06.

Regarding GGCAAAGCUCAAAACAGCUUGGCAAAGUGGCUGUGGCUAGAGAGCC [G5A C13A G19U C42G U43A], the self-cleavage was determined as 0.07.

On to GGCAAAGCUCAAAACAGCGUGCCGAAGUGGCUGUGGCUGGACUGCC [G5A C13A G22C A24G A39G], for which the self-cleavage came out at 0.09.

As for GGCAAAGCUAAACACAGCGUGGCAAAGUGGCUGUGGAUGGACUGCC [G5A C10A C37A A39G], the self-cleavage came to 0.01.

Regarding GGCAAAGCUCAAAACAGCGUGGCUAAGUGGCUGUGGCUAGACUGCC [G5A C13A A24U], the self-cleavage came out at 0.06.

Turning to GGCAAAGCUCAAAACAGCGUGGCAAGGUUUCUGUGGCUGGACUGCC [G5A C13A A26G G29U G30U A39G], the self-cleavage came out at 0.09.

On to GGCAAAGCUCAAGACAGGGUUGCUAACUGGCUGUGGCUAAACUGCC [G5A C13G C18G G21U A24U G27C G40A], for which the self-cleavage was 0.04.

Regarding GGCAAAGCUCAAAACAGCGUGGCAAAGUGUCUGUGGCUAGACUGCG [G5A C13A G30U C46G], the self-cleavage turned out to be 0.04.

As to GGCAAAGCUCAAAACAGAGUGGCAAAGUGGCUGUGGCUAGACUGCC [G5A C13A C18A], the self-cleavage was determined as 0.05.

On to GGCAAAGCUUAACAGAGCGUGGCAGAGUGGCUGUAGCUAGACUGCC [G5A C10U C15G A25G G35A], for which the self-cleavage came to 0.03.

As to GGCAAAGCUGAACACGGCGUGGCAAAGUGGCUGUGGCUAGGCUGCC [G5A C10G A16G A41G], the self-cleavage is 0.02.

In the case of GGCAAAGCUUCACAAAGUGUGGCAAACUGGCUUGGGCUAGACUGCU [G5A C10U A11C C15A C18U G27C G33U U34G C46U], the self-cleavage turned out to be 0.01.

On to GGCAAAGCUAAACACAGCGUGGCAAACUGGCUGCGGCUAGGCUGCC [G5A C10A G27C U34C A41G], for which the self-cleavage was found to be 0.01.

Turning to GGCAAAGCUGAACACAGCGGGGCAAAGUGGCAGUGGCUAGACUGCC [G5A C10G U20G U32A], the self-cleavage came out at 0.01.

In the case of GGCAAAGCUUAACACACGGUGGCAAAGUGGCUGUGGCUAGACUGCC [G5A C10U G17C C18G], the self-cleavage is 0.02.

Consider GGCAAAGCUCAAAAAAGCGUGGCAAAGUGGCUGUGGCUAGAGUGCC [G5A C13A C15A C42G], for which the self-cleavage is 0.06.

GGCAAAGCUCAAUACAGCAUGGCAAUGUGACUGUGGCUAGAUUGGC [G5A C13U G19A A26U G30A C42U C45G]: the self-cleavage is 0.03.

For GGCAAAGCUGAACACAGCGUGGCACAGUGGCUGCGGAUAGACUGCC [G5A C10G A25C U34C C37A], the self-cleavage is 0.01.

In the case of GGCAAAGCUCAAUGCAGCGUGGCAAAGUGGCUGUGGCUAGACUGCC [G5A C13U A14G], the self-cleavage came out at 0.03.

With GGCAAAGCUGAACACAGCGUGGCAAAGUGGGUGUGGCGCGACUGCC [G5A C10G C31G U38G A39C], the self-cleavage was found to be 0.06.

Consider GGCAAAGCUCAACAAAGCGUGGCAAAGUGGCUGUGGCUCGACUGCC [G5A C15A A39C], for which the self-cleavage was found to be 0.18.

As to GGCAAAGCUUAACACAGCGUGGCAAAGUGGCUGUGGCUAGAUUGCC [G5A C10U C42U], the self-cleavage was determined as 0.14.

On to GGCAAAGCUAAAGACAACGUGGCAAAGUGGCUGUGGCUAGUCUGCU [G5A C10A C13G G17A A41U C46U], for which the self-cleavage turned out to be 0.05.

Regarding GGCAAAGCUCAAUACAGCGUGGCAAAGUGGCUGUGGCUAGACUGCG [G5A C13U C46G], the self-cleavage came to 0.02.

For GGCAAAGCUCAAAACAGCGUGGCAAUCUGGCUGGGGCUAGACUGCC [G5A C13A A26U G27C U34G], the self-cleavage was found to be 0.04.

For the variant GGCAAAGCUUAACACAUCGCGGCAAAGUGGCUGUGGCUAGUCUGCC [G5A C10U G17U U20C A41U], the self-cleavage came out at 0.04.

Consider GGCAAAGCUUAACACAGCGUGGCAAAGUGGGUGUGGCUAGACUGUC [G5A C10U C31G C45U], for which the self-cleavage is 0.03.

As for GGCAAAGCUAAACACAGCGUGGCAAAGUGGCAGUGGCUAGACUACC [G5A C10A U32A G44A], the self-cleavage worked out at 0.06.

On to GGCAAAGCUUAACACAGCGUCGCAGAGUGGCUGUGGCUAGACUGCC [G5A C10U G21C A25G], for which the self-cleavage amounted to 0.01.

As for GGCAAAGCUCAAUACGUCGUGGCAAAGUGGCUGUGGCUGGACUGCG [G5A C13U A16G G17U A39G C46G], the self-cleavage was 0.06.

As for GGCAAAGCUCAAAACAGAGUGGCAAAGUGGCUGUGGCUAUACUGCC [G5A C13A C18A G40U], the self-cleavage came to 0.02.

Consider GGCAAAGCUGAACGCAGCGUGGCAAAGUGGCUGUGGCUAGACUGCC [G5A C10G A14G], for which the self-cleavage turned out to be 0.02.

With GGCAAAGCUCAAGACAGCGUGGCAAAUUGGCUGUGGCGAGACUGCC [G5A C13G G27U U38G], the self-cleavage came out at 0.04.

With GGCAAAGCUUAACGCAGCGUGGCAAAGUGGCUGUGGCUAGACUGCC [G5A C10U A14G], the self-cleavage is 0.22.

On to GGCAAAGCUGUACACAGCGUGGCAAAGUGGCUGUGGCUAGACUGCC [G5A C10G A11U], for which the self-cleavage was 0.02.

As for GGCAAAGCUCAACAAAGCGUGGCAAAGUGGUUGUGGCUAGACUGCC [G5A C15A C31U], the self-cleavage amounted to 0.03.

Regarding GGCAAAGCUGAACACAGCGUGGCAAAGUGGCUGUGGCCAGAUUGCC [G5A C10G U38C C42U], the self-cleavage is 0.01.

The record behind these values is the RNAGym collection of RNA variant scans (doi:10.7554/elife.90254).
